From PubChem BioAssay AID2060623 (Molecular Pharmacology Branch, DTP, NCI, 2025)
Not every entry of the source has a single result; some have several. The list is limited to them. The source may hold further records. The records of an entry repeat one measurement in other runs, samples, wells, individuals or studies.

System: 227483-062-R1-J1-PDC complex spheroids with HUVEC/MSC, viability
Experiment: Anticancer human tumor 227483-062-R1-J1-PDC patient-derived pancreatic carcinoma cell line growth inhibition [CLK]
Details: compound alone; run of 09/19/2023
Text: A high-throughput screen of multi-cell type tumor spheroids was designed to identify active combinations of […] and targeted small molecules. Complex spheroids include a stromal component modeled by human endothelial cells (HUVEC) and fibroblasts modeled by human mesenchymal stem cells (MSCs). The concentration ranges selected for each drug and investigational agent were based upon clinically achievable concentrations if the clinical Cmax of the agent was known.
Compounds. The drugs and investigational agents: cirtuvivint (SM08502; NSC835563), CC-671 (NSC850746), vemurafenib (NSC761431), tapotoclax (NSC804041), sotorasib (NSC818433), adagrasib (NSC831453), MRTX-1133 (NSC836407), BAY2416964 (NSC825713), copanlisib (NSC816437), inavolisib (NSC800729), abemaciclib (NSC768073), osimertinib (NSC779217), entinostat (NSC756642), eltanexor (KPT-8602, NSC794443), venetoclax (NSC766270), ceralasertib (NSC777638), bortezomib (NSC756655), olaparib (NSC753686), talazoparib (NSC767125), alisertib (NSC759677), peposertib (NSC802822), gemcitabine (NSC613327), 5-fluorouracil (NSC19893), SN-38 (NSC673596), oxaliplatin (NSC266046), paclitaxel (NSC125973), and doxorubicin (NSC123127), were obtained from the National Cancer Institute (NCI) Developmental Therapeutics Program Chemical Repository. […] If the clinical Cmax for an agent had not been determined, the highest concentration tested was 10 microM. […]
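Further: spheroids exposed to compounds for seven days before readout.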

## CNC(=O)c1ccc(Nc2nc(OC3CCCC3)c3c(-c4ccc5nc(C)oc5c4)c[nH]c3n2)c(OC)c1
  IC50: 1.87, 2.96, 2.13, 2.87, 1.64, 2.57, 2.07, 1.67, 6.53, 3.48, 5.7 µM
